Source: the supplement of paper PMC10126150
Sequences with one replicate were seen in a single cluster, so their values are uncertain.

Tested on: ATP
Assay: switch fluorescence ratio, 500 uM ATP over buffer (Cy3 cluster intensity, sum of 5 cycles each) (fold (ratio)); higher = stronger signal-on switching upon ATP binding; sequences stand for … in TCGTCGGCAGCGTCAGATGTGTATAAGAGACAGTTTTTTTTTTTTTTTTTTTTTTTTT…TC
Details: aptamer strand: ATP DNA aptamer (quencher-CACCTGGGGGAGTATTGCGGAGGAAGG + anchor), 100 nM annealed; ATP concentration: 500 uM; one replicate
How it was run: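 Cy3-labelled switching-strand clusters on a modified Illumina MiSeq flow-cell were annealed to 100 nM quencher-labelled ATP aptamer, imaged in selection buffer, then imaged after 15 min with 500 uM ATP at 22 °C. Five buffer/ATP cycles ran, with NaOH stripping and re-annealing between them. The fluorescence ratio is summed target-cycle over summed buffer-cycle Cy3 intensity per cluster, averaged per switch-domain sequence. Clusters outside 100-1000 RFU were excluded.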
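Further: ATP exposure 15 min at 22 °C before imaging.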

Sequence	switch fluorescence ratio
GTGTAACTTG	1.02
TTTAGTTCAA	1
GGTCCTGTAT	0.991
CTGACTCCGC	3.28
TGATGGTGCT	0.963
GAAGATAGAG	1.01
CGGTCCGGGG	0.977
CCGAGCACGA	4.65
AGATGCCTTT	1.01
GGTGTTGCTG	1
CCTATCCTTT	0.961
TCAACTTAGG	1.02
GGTTGGCCCT	1.01
CACGCCTTCC	1.44
AGGCAACCTG	1
TGGTCGCGGG	1
CCATCTGTCG	1.03
TTATAAGCAT	1.06
CACGACGTAT	1.13
GGGAGTGTGA	1.01
CGATTCCTAA	0.994
GGACGGTGGA	1.02
GACGATGAGC	1.1

Sequence	switch fluorescence ratio
AGTAGGAACC	0.978
GGGCCTCTCC	1.22
CATGGGATCG	1.05
GCTGCAAGTT	1.01
CAGGTACCCG	1.01
CTAGGGCCCC	1.08
TTCCCCTTTG	1.06
TGGAGCTGGT	0.998
CAATTTAGGA	0.978
TTCCAAAGCA	1.36
TTGGTGCGCG	0.993
GAGCCAGTCC	0.994
TGACAAGGGC	1.04
CCAACAGTTT	1.03
AAGGGAGGCA	0.977
AAACTATCGA	0.971
CGGGTCCCGT	1.04
TCGTTCGTCA	0.997
CAGACTAAGG	1
TGGCATAGCC	0.997
CCCAAATCGG	0.994
ACACTGGCTC	1.04
GCGGGAGCAA	1.51

Sequence	switch fluorescence ratio
ATCAGGTTTA	1
TCAATATTAC	1.13
TCGCTAATTT	1.2
TCGGACATAC	3.5
ACCCTGTAGA	0.986
ACCACGGGGG	3.98
AGGAATAGAC	1.06
AGCGAATGG	1.08
TCGGCGTCGT	1.06
TCGCATTCTT	1.34
TAGGGTCAGA	0.985
AGGAGGTGTG	1
AGAAGGTAGG	1.01
TGAGTCTGAA	0.987
ACAGAACGCT	1.08
ATCGAAGCGC	1.05
CGGGTCGGA	0.984
TGGCCCCATC	1.16
ACTTTTAAGC	1.03
ACCAGCTTTA	1.01
TGACGGGAT	1
GACTGGGCGC	1
AATCGTAGCC	1.01

Sequence	switch fluorescence ratio
AGAACCGGTT	1.01
AGTTCTCAGC	1.04
TAAATGGCGG	0.971
CCCCAAGGAT	1.19
AAGCCGTAG	1.01
ATAGAAGGCA	1.01
TTCTCGGGGT	0.995
ATTATATCTC	1.02
GACTAGAGAG	0.987
ATTATCAAAG	1.02
TTACAGGGAC	1.5
AATGATTGGT	0.978
CATTACGTGA	1
AGAGAAGGGC	1.05
GTCCCTCGA	1.04
TGGTTAGACG	1.04
CAAGACGGGT	1.04
GGCTACTAC	1.25
TAATGTGTAT	0.935
TATACTGCCG	0.999
GGTTCCCGCC	1.03
TTGAAACTAT	0.974
CAGACGGGCT	1.08

Sequence	switch fluorescence ratio
GAGTGGGGCA	0.977
AATTCTTATA	1.03
TAACCCTCAG	1.03
CCAAATGCAG	1.1
ATATCACTGG	0.98
TCAGAGCCAA	1.2
TGCGTATTGT	1.05
ATATGGCAGT	0.932
GGACTTGAAC	1.1
TGACTCCATA	1.08
CAGGGACCTC	1.04
GGGGCGTGGT	1.02
ATATCATACG	1.04
TTGGTCCAAC	0.978
AGGCTGCTAA	0.997
ATGGACAGCA	1.03
GGCGATAACC	1.02
TGCGCTTGAA	0.968
TCTCCCCGCT	1.95
ACGGCCGGTA	0.972
TATTAGGTCA	1.01
ATCTGTGGGT	0.989
GATGGGACTA	1.01

Sequence	switch fluorescence ratio
GGTCTCTCCA	0.988
CAGAGTCCCG	0.943
ACATATCTCG	0.994
GGTAGATTTG	0.986
CCAGGGGGC	1.06
TCTGCTGACG	1.05
CCGAGAGCGT	2.77
GGACGAGGCT	1.01
ATCCTGTTCG	0.974
AAACTGCTAT	1.16
CCAAACAAGA	1.03
CCTCTGAACA	2.69
ACGGGGCGAA	1.03
ATGGTATGCA	0.999
CTGTGTACGC	1.01
TGTCTCTTTA	0.925
TTCGTACCTA	1.07
TGGGATGATA	0.993
ATATACGT	0.999
TTATGGTTTA	1.06
CTTTTACAAT	0.994
CTCATTACGA	1.08
CCAGTCTAGT	1.03

Sequence	switch fluorescence ratio
TTTCATCTTC	0.987
TCGACTACGG	1
CCTCGTCATG	1.73
TAGAGGGGAC	0.957
GAGGCAGG	1.03
CGTGAGGAAC	0.994
TATTGGTAAG	1.02
TCCTTTTATT	1.03
TTTGTGTTCC	1.08
TTACTCCTCT	1.12
CAGACGGGTT	1.01
ACTGTGACGC	1.28
CTACGTCTG	1.05
CCATGATCAT	0.988
GATCCAGGAT	0.985
GGGTAGATCG	1.05
TCTAGACTGT	1.02
ACGTAGCCTA	1.13
ACATCTACGT	1.47
